# Assay results from paper PMC3492284.
# Sequences of proteins named here, by UniProt entry; tags and fusion partners are left off.
# UniProt Q13191: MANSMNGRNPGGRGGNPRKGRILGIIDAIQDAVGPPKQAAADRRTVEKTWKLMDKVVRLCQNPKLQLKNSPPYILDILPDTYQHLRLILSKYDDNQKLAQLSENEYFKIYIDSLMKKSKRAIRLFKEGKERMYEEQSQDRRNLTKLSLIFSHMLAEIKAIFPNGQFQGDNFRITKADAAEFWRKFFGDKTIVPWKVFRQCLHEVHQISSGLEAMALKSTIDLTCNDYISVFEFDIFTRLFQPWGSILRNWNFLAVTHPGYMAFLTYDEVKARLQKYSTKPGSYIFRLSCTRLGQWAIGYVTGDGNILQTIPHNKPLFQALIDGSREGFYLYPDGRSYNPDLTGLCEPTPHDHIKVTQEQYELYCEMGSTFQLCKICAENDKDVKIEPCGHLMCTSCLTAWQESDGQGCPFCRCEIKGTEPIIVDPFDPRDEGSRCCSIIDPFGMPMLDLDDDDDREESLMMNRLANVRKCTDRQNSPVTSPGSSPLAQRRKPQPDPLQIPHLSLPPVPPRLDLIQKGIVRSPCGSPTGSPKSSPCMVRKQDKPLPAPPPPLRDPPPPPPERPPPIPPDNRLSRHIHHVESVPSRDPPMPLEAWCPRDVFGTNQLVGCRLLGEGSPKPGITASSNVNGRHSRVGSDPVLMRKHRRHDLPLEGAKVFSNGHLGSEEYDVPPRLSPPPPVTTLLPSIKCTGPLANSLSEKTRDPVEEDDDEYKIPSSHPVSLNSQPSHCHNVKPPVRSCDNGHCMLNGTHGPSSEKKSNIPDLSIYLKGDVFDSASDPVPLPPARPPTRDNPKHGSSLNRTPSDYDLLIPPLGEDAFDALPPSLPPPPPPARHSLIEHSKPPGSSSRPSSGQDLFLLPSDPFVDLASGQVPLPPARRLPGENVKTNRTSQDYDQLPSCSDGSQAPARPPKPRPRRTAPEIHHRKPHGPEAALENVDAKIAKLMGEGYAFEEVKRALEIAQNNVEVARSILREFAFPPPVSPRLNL
# Substitutions are numbered along the chain they refer to. These are yes or no findings as the source states them, for the method shown. In cells and extracts the contact can be indirect. Some binding calls cover weakened binding; strength is not graded here. For some assays here: Tags and fused reporters may be left off the sequences shown.
# Experiments:
# [1] = molecular target: T1, HA-epitope tagged Cbl-c, full length (UniProt Q9ULV8); experiment: co-IP; HEK293T cells co-transfected; 200 µg lysate protein; HA-tagged Cbl proteins precipitated with HA-affinity matrix overnight at 4°C; lysis buffer 10 mM Tris-HCl pH 7.5, 150 mM NaCl, 5 mM EDTA, 1% Triton X-100, 10% glycerol; blot for Hic-5 or Trip-6
# T1 sequence: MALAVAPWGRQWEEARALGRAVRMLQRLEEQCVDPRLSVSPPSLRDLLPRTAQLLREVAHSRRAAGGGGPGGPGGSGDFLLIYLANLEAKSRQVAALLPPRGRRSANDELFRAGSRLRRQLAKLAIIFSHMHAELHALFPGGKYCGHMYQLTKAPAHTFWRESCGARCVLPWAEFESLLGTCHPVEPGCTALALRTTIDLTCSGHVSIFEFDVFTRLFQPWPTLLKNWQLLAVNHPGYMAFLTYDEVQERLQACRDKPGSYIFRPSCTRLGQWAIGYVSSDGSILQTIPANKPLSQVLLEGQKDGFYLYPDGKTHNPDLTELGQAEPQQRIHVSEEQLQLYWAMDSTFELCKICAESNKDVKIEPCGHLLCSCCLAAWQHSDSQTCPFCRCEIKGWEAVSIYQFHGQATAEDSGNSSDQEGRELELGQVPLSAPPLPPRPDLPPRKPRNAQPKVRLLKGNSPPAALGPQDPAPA
# [2] = molecular target: T2, endogenous Cbl-c (human (endogenous in CFPAC-1)) (UniProt Q9ULV8); experiment: co-IP; endogenous proteins; 2000 µg lysate protein; rabbit polyclonal anti-Cbl-c antibody and Protein A/G+ agarose overnight at 4°C; CFPAC-1 cells, with cells lacking Cbl-c as control; blot for Cbl-c and Hic-5
# T2 sequence: T1 sequence
# [3] = molecular target: HA-epitope tagged Cbl, full length (UniProt P22681); experiment: co-IP; HEK293T cells co-transfected; 200 µg lysate protein; HA-tagged Cbl proteins precipitated with HA-affinity matrix overnight at 4°C; lysis buffer 10 mM Tris-HCl pH 7.5, 150 mM NaCl, 5 mM EDTA, 1% Triton X-100, 10% glycerol; blot for Hic-5 or Trip-6
# [4] = molecular target: HA-epitope tagged Cbl-b, full length (UniProt Q13191); experiment: as above
# [5] = molecular target: T3, HA-epitope tagged Cbl-c C351A (UniProt Q9ULV8); experiment: as above
# T3 sequence: T1 sequence with C351A
# [6] = molecular target: T4, HA-epitope tagged Cbl-c C351A C366A double mutant (UniProt Q9ULV8); experiment: as above
# T4 sequence: T1 sequence with C351A, C366A
# [7] = molecular target: T5, HA-epitope tagged Cbl-c C366A (UniProt Q9ULV8); experiment: as above
# T5 sequence: T1 sequence with C366A
# [8] = molecular target: T6, HA-epitope tagged Cbl-c Short (UniProt Q9ULV8); experiment: as above
# T6 sequence: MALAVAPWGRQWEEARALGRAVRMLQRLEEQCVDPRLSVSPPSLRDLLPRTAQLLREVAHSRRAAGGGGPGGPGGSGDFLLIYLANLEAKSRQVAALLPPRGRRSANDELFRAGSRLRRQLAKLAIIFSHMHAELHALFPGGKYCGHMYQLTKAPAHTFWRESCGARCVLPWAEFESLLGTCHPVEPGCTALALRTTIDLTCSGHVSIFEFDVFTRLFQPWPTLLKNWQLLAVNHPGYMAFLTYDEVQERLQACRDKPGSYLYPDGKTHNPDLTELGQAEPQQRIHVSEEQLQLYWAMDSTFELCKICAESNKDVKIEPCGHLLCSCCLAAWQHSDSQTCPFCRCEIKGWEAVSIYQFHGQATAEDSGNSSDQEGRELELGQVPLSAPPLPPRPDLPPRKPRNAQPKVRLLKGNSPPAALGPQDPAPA
# [9] = molecular target: T7, HA-epitope tagged Cbl-c ΔRF (UniProt Q9ULV8); experiment: as above
# T7 sequence: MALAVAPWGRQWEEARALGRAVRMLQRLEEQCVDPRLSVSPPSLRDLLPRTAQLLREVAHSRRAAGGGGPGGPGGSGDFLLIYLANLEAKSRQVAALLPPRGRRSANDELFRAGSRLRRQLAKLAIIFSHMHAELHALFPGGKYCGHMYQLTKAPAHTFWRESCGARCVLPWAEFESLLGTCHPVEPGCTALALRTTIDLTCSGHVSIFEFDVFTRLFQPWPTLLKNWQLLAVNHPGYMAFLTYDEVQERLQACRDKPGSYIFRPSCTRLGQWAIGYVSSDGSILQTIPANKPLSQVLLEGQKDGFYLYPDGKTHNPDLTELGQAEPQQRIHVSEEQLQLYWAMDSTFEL
substance,measurement,setting,value
Hic-5 C313A (pCMV-Hic-5 mutant) (from UniProt O43294 1-461),binding,[1],binds
Hic-5 C287A (pCMV-Hic-5 mutant) (from UniProt O43294 1-461),binding,[1],no binding
endogenous Hic-5 (from UniProt O43294 1-461),binding,[2],binds
"Hic-5, full-length cDNA (pCMV-Hic-5) (from UniProt O43294 1-461)",binding,[3],no binding
same,binding,[4],no binding
same,binding,[5],binds
same,binding,[6],no binding
same,binding,[7],no binding
same,binding,[8],binds
same,binding,[9],no binding
same,binding,[1],binds
